# Test results reported in PubChem BioAssay AID662 (National Center for Advancing Translational Sciences (NCATS), 2007).
# Hit rate of the full screen: of about 71,000 compounds, about 1,800 (2.5%) were called active. Inconclusive means that the source gave no clear call. Such entries were picked first, then a sample of the others. The call rests on the fitted dose curve; in most records, active means well fitted activation curve with a large enough effect in the signal ratio, with a control signal flat (not every such curve was filed as active); inconclusive means small, poorly fitted or top-dose-only effect, or effect the other way, or a change in a side signal; inactive means flat fitted curve, though single readings scatter; the % refers to the signal ratio. Potencies of inconclusive entries are doubtful fits and often do not repeat.
# Assay: Cell signaling CRE-BLA (Fsk stim); on activity change, negative = inhibition: % of control where 0% means no effect
# Settings: CHO CRE-bla reporter (cAMP response element driving beta-lactamase), forskolin EC10, beta-lactamase ratio; activity change, negative = inhibition: at 38.2 µM (top of the series) unless noted
# Summary of the method: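 Using CellSensor CRE-bla CHO cells in Opti-MEM with 0.5% dialyzed FBS, compounds were titrated with EC10 NKH 477 for 3 h at 37 °C. CCF4 ratio (460/530 nm) gave %Activity; AC50 derived.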
# Potency means the concentration at half of the fitted maximal effect; tags describe the fitted curve by direction and shape.
SMILES,"activity change, negative = inhibition",Potency
COc1ccc(NC(=O)CCN2CCCC(C)C2)cc1 (stereo unspecified),inconclusive: 17.2%,–
CCc1cc2c(CN3CCN(C)CC3)cc(=O)oc2cc1O,–,"inconclusive: 10 µM [rising, partial curve]"
Cc1nc2ccccc2c2oc(C(=O)NCC3COc4ccccc4O3)cc12 (stereo unspecified),–,"inconclusive: 20 µM [falling, single point]"
CN(C)CCNc1c2c(c(C#N)c3nc4ccccc4n13)CCCC2,inactive: 10.4%,–
COc1ccc(C2C(C(=O)c3cccs3)=C(O)C(=O)N2c2nnc(C)s2)cc1OC (stereo unspecified),–,"inconclusive: 0.631 µM [falling, full curve, poor fit]"
CN(C)C(=O)N1CCC(C(=O)NCc2cccs2)CC1,inconclusive: 23.2%,–
O=C(OC(C(=O)NCc1cccs1)c1ccccc1Cl)c1ccco1 (stereo unspecified),inactive: -8.62%,–
Cc1nnc(Oc2ccccc2F)c2ccccc12,inconclusive: -9.35%,–
CCCC[C@@H]1C[C@H]1C(NC(=O)Cc1ccccc1)c1ccc(Cl)cc1 (stereo partly specified),inactive: 15%,–
Cc1ccc(NC(=O)c2ccccc2C(=O)O)cc1C,inactive: -8.72% [at 7.6 µM],–
O=C(Nc1cccc(F)c1)c1c(F)c(F)c(F)c(F)c1F,inconclusive: -8.79%,–
CCCS(=O)(=O)NCc1cn2cccc(C)c2n1,inactive: 7.84%,–
CCc1c(C)nc(SC)n(CC#N)c1=O,–,"inconclusive: 20 µM [rising, partial curve]"
NS(=O)(=O)c1ccc(S(=O)(=O)N(Cc2ccccc2F)CC2CCCO2)cc1 (stereo unspecified),inactive: -4.24%,–
Cc1ccc(OCc2nc(-c3ccccn3)no2)c(Br)c1,inactive: 5.06%,–
COc1ccccc1OC[C@H](O)CO,inactive: -9.25% [at 17.1 µM],–
CC(=O)N1CCC2(CCCN(C(c3ccccc3)c3ccccc3)C2)CC1,inconclusive: 28.9%,–
COc1ccc(-c2ccc(-c3noc(-c4ccccc4C)n3)c(OC)n2)cc1,inconclusive: 24.2%,–
Cc1ccc(NC(=O)Cn2cccc2)cc1C,inactive: 4.76%,–

SMILES,"activity change, negative = inhibition",Potency
Oc1ccc2ccccc2c1/C=C\c1ccc2c(Br)cc(Br)c(O)c2n1,inconclusive: 17.6% [fluorescent] [at 7.6 µM],–
CCOC(=O)c1oc2ccc(Br)cc2c1NC(=O)CN1CCN(C)CC1,–,active: 0.02 µM
O=C(NCc1ccc2c(c1)OCO2)c1ccc2snnc2c1,inconclusive: 26%,–
CCCCCCNC(=O)Cc1c(O)c2ccccc2[nH]c1=O,inactive: 4.46%,–
c1ccc(-c2n[nH]c(-c3ccccn3)n2)nc1,inactive: 27.7%,–
O=C1c2ccccc2C(=O)N1CCCCSc1nnc(-c2ccc(OC(F)F)cc2)o1,–,"inconclusive: 3.16 µM [falling, single point]"
Cn1nc(C(=O)NCc2cccnc2)c2ccccc2c1=O,–,"inconclusive: 20 µM [rising, single point]"
CN(C)c1ccc(/C=c2\sc3n(c2=O)CCCN=3)cc1,inconclusive: 13.2%,–
COc1ccc(-c2nnn(CC(=O)c3ccc4c(c3)OCCO4)n2)cc1OC,–,"inconclusive: 12.6 µM [rising, single point]"
COCCN(CC(=O)NCc1ccc(F)cc1)C(=O)CCC(=O)Nc1nccs1,inactive: 4.05%,–
NCCC[C@@H](CC(=O)N[C@@H]1CCCC[C@H]1C(=O)N[C@H](CC(=O)N[C@@H](CCC(=O)O)CC(=O)O)Cc1ccccc1)NC(=O)C[C@H](Cc1c[nH]c2ccccc12)NC(=O)[C@@H]1CCCC[C@H]1N,inactive: -13.9%,–
O=c1c(-c2ccc(F)cc2)nc2cnc(N3CCNCC3)nc2n1-c1ccccc1,–,"inconclusive: 0.316 µM [rising, full curve]"
CC(C)Sc1oc(-c2ccco2)nc1S(=O)(=O)c1ccc(F)cc1,inactive: 2.54%,–
Cc1cccc(CNc2cc(-c3ccc(C(=O)N(C)C)cc3)ncn2)c1,–,"inconclusive: 3.16 µM [rising, partial curve]"
COC(=O)CC(=O)CSc1nc(C)cc(C)c1C#N,inconclusive: 27.3%,–
NC(N)=N[C@H](CCC(=O)O)C(=O)O,inactive: 6.42%,–
C/C(=N/NC(=O)c1ccncc1)c1ccccc1Cl,inactive: 7.56% [at 7.6 µM],–
CCOC(=O)c1nnc2cc(-c3ccc(Br)cc3)nn2c1C,inactive: 10.6%,–
COc1cc(NS(=O)(=O)c2ccc(N)cc2)nc(OC)n1,inactive: 6.18% [at 17.1 µM],–

SMILES,"activity change, negative = inhibition",Potency
COc1ccc2cnn(Cc3ccccc3)c(=O)c2c1OC,–,"inconclusive: 12.6 µM [rising, single point]"
CN(C)C[C@@H](O)c1ccc(Cl)c2ccccc12,inactive: -11% [at 7.6 µM],–
COc1ccc(CNc2n[nH]c(NCc3ccc(OC)c(OC)c3)n2)cc1OC,inactive: -2.87%,–
Cc1ccc(-n2nnnc2SCC(=O)c2cc(C)n(CC3CCCO3)c2C)cc1 (stereo unspecified),inconclusive: 9.31%,–
Cc1ccc2c(c1)C(=O)[C@@]1(O)CCN(c3ccccc3)C1=N2,–,"inconclusive: 31.6 µM [falling, single point]"
CCOC(=O)c1c(C)c(C(=O)NCc2ccc3c(c2)OCO3)c(C)n1CC,–,"inconclusive: 10 µM [rising, single point]"
CC(=O)c1ccc(-n2nncc2C)cc1,inconclusive: -16.3%,–
CCn1cc(CNC(=O)C2C3CCC(C3)C2C(=O)O)cn1 (stereo unspecified),inactive: -24.1%,–
Cn1nc(-c2ccc(Cl)cc2)c2cc(C(=O)NCCCN3CCOCC3)sc21,–,active: 7.94 µM
COc1ccc2c(c1)C=CC1(O2)N(CCO)c2ccccc2C1(C)C (stereo unspecified),–,"inconclusive: 12.6 µM [rising, single point]"
COc1ccc(OC)c(S(=O)(=O)Nc2c(F)cccc2F)c1,inconclusive: 5.43%,–
O=C(CN1CCN(c2ccc(Cl)cc2)CC1)c1ccc2c(c1)OCO2,inconclusive: -22.7%,–
Cc1cc(C)cc(C(=O)/C=C2\NC(=O)CS2)c1,inconclusive: -13.8%,–
CC(C)Sc1nc2ccccc2n1CC(N)=O,inactive: 3.73%,–
COc1ccc(OC)c(C(=O)c2coc3ccc(OC)cc23)c1,–,"inconclusive: 10 µM [rising, single point]"
C#CCNc1c(C)c(C)nc2ncnn12,–,"inconclusive: 10 µM [rising, partial curve]"
CC(C)Cn1cnc2c(N)nc3ccccc3c21,inconclusive: 10%,–
COc1nc(NC(C)=O)nc(C)c1Br,–,"inconclusive: 10 µM [rising, single point]"
